Our source for the switch fluorescence ratio values is the supplement of paper PMC10126150.

Values marked as one replicate rest on one cluster of the flow cell; about a third of the high ones do not repeat.

For this data set, the system named is ATP. Put plainly: switch fluorescence ratio, 500 uM ATP over buffer (Cy3 cluster intensity, sum of 5 cycles each) (fold (ratio)); higher = stronger signal-on switching upon ATP binding; sequences stand for … in TCGTCGGCAGCGTCAGATGTGTATAAGAGACAGTTTTTTTTTTTTTTTTTTTTTTTTT…TC. To be noted: aptamer strand: ATP DNA aptamer (quencher-CACCTGGGGGAGTATTGCGGAGGAAGG + anchor), 100 nM annealed; ATP concentration: 500 uM; one replicate. In a few lines: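 After annealing to 100 nM quencher-labelled ATP aptamer, Cy3-labelled switching-strand clusters on a modified Illumina MiSeq flow-cell were imaged in selection buffer. A second image followed after 15 min with 500 uM ATP at 22 °C, and five such buffer/ATP cycles were done, each separated by NaOH stripping and re-annealing. The fluorescence ratio, averaged per switch-domain sequence, is summed target-cycle over summed buffer-cycle Cy3 intensity per cluster, with clusters outside 100-1000 RFU excluded.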
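Also: ATP exposure 15 min at 22 °C before imaging.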

In the case of CGACTTACGT, the switch fluorescence ratio turned out to be 1.32.

With TGGGAGCACA, the switch fluorescence ratio came to 1.02. Next, GGTTTACTAG: 1.02; TTATGTTTAC: 1.02; TGCGTGTGGC: 1.01. For the sequence ACATATCGAA, the switch fluorescence ratio came to 1.07. To TTCTAATGAT belongs 0.971; to GTTGATCGTC, 0.98; to AGCTCAGTCT, 0.991. To AGGTTCAACT belongs 1.02; to CGCTGGTCTG, 0.972; to TAAATGGTT, 0.999. Next, TCGAAGTTAG: 1.05; CTCGTATAGC: 1.03; ATGGGGATAT: 0.973. CGACAATCTT: the switch fluorescence ratio is 1.03. Next, GGGATGAGAC: 1.05; TTTGAGAGGG: 0.991. Next, CGTTCGGACG: 1.02; CCTAAGACGC: 1.08; TATAACTTCC: 2.52.

TGTGGGCAGG: the switch fluorescence ratio was determined as 0.942. To GGTTTATAGA belongs 0.976. For the sequence AGGGATTCTA, the switch fluorescence ratio is 0.959. Take GGTATCTGAG: the switch fluorescence ratio is 1.03. As for GGCGCCGGGT, the switch fluorescence ratio turned out to be 1.04.

Take AAAATTAGAA: the switch fluorescence ratio came out at 1.01.

As for TTATGCGCCC, the switch fluorescence ratio is 1.05.

Regarding CGTAGATTCG, the switch fluorescence ratio was found to be 0.967. To GCGATATACT belongs 1.66; to GACCGCCATC, 2.7. As to CTTGTCTTTC, the switch fluorescence ratio was 1.05. Consider GGATTAGTAC, for which the switch fluorescence ratio was 1. Next, TTTAGTCTT: 1.01; TCTCTATTTT: 0.981. Next, CAGTCTTCTG: 0.997. To TTAACCTTCT belongs 2.15.

Turning to AGTTACTCGA, the switch fluorescence ratio is 1.05.

For TGATATGTCG, the switch fluorescence ratio came out at 0.857. To ACCTCGTACC belongs 1.08.

Turning to GGGGCAAGGT, the switch fluorescence ratio is 1.03. Next, GTTTTTCC: 1.06; CTCGTACTAT: 1.06; TACTGTTCCG: 0.995.

As for TCGTAATAAG, the switch fluorescence ratio turned out to be 1.02.

As to CATGGCCCGT, the switch fluorescence ratio amounted to 1.

As for TTCAAGTATG, the switch fluorescence ratio is 1.01. As for CGTTTGGTAC, the switch fluorescence ratio turned out to be 1.09.

Consider ATGAACGCCC, for which the switch fluorescence ratio was found to be 1.18. To GCAGAAGGTG belongs 1.53; to CGCTGGTTAT, 1.02; to CAGACGGCGG, 0.998.

For the sequence CGATAGTCT, the switch fluorescence ratio was 0.9. Next, AAGGGATTTC: 1.01; ATCAGAAACG: 0.934. To GAATACAAGT belongs 0.966; to GGACGCCCAC, 2.8. Next, CTGGAGCGAA: 3.68. Consider CATTTCGAAG, for which the switch fluorescence ratio was 1.01. Consider AGTCAGCGAT, for which the switch fluorescence ratio was 1.2.

With ACTCGTCTGA, the switch fluorescence ratio was determined as 1.02. To TACGGAGATC belongs 0.992; to GGTCGTGTGC, 1.02. To TCGTAGTTAC belongs 2.47; to AAGGGTGGTT, 0.993.

Consider TAATAGCCAG, for which the switch fluorescence ratio was 0.973. Next, TACTTCAGGG: 0.986.
